Experimental findings from PMC6919601, “Identification of Plasmodium dipeptidyl aminopeptidase allosteric inhibitors by high throughput screening” (PLoS ONE, 2019) are described below.

SMILES strings stand for the structures. Out of some 110,000 compounds screened, about 230 (0.21%) showed an effect of 50% or more. This is one part of the list.
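Further: 30 min substrate incubation versus DMSO and 10 µM JCP410 controls.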

This assay deals with DPAP1 (Plasmodium falciparum, UniProt Q8IIJ9). Briefly: primary screen, percent inhibition; read by cleavage of a fluorogenic dipeptide substrate; higher = more effect of the substance. Also on record: species or system P. falciparum D10 trophozoite lysates; single well.
Sequence of DPAP1 (Q8IIJ9 whole entry, looked up): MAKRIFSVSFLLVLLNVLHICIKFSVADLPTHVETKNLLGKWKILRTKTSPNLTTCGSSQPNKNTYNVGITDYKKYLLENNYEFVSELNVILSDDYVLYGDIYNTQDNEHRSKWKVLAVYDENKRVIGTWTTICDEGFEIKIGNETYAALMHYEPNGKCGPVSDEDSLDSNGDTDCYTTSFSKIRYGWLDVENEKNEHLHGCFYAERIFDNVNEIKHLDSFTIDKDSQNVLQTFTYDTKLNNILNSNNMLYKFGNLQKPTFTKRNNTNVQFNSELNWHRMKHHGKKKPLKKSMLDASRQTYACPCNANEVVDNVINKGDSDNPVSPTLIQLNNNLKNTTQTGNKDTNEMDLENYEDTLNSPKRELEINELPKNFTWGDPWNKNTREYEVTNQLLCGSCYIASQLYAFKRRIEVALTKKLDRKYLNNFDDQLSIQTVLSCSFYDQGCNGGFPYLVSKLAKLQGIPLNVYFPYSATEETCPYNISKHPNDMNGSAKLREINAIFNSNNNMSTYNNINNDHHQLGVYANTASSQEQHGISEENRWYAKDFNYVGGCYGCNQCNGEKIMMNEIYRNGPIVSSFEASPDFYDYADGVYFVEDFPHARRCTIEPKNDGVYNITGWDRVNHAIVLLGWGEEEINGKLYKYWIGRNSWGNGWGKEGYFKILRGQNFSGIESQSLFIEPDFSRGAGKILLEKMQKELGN
With `C=CCOc1ccc(C2c3c(n[nH]c3-c3c(C)cc(C)cc3O)C(=O)N2CCO)cc1` (stereo not shown), the “% Inhibition @ 10 uM” value is 1.67%.
Turning to `CN1CCC(N2CC=C(c3ccc(F)cc3)CC2)CC1`, the “% Inhibition @ 10 uM” value is given as -1.75%.
Under `COc1ccc(S(=O)(=O)N(CC(=O)NCC2CCCO2)c2cccc(Cl)c2)cc1` (stereo not shown) stands 3.49%.
On to `O=C(C1=C(O)C(=O)N(CCCn2ccnc2)C1c1ccncc1)c1cc2ccccc2o1` (stereo not shown), for which the “% Inhibition @ 10 uM” value is recorded as -4.33%.
For the molecule `Fc1ccc(N2CCN(Cc3ccc4c(c3)OCO4)CC2)cc1`, the “% Inhibition @ 10 uM” value is -0.0404%.
For `COc1ccc(Cl)cc1C1C2=C(CC(C)(C)CC2=O)N(CC(=O)O)C2=C1C(=O)CC(C)(C)C2`, the “% Inhibition @ 10 uM” value was -2.09%.
For `O[C@]12CCCC[C@@H]1[C@@H](c1cccc(F)c1)NCC2`, the “% Inhibition @ 10 uM” value is -1.8%.
In the case of `Cc1ccc(C2C(C(=O)c3ccc4c(c3)OCCO4)=C(O)C(=O)N2CCN2CCOCC2)cc1` (stereo not shown) it was -3.49%; in that of `CCOC(=O)N1CCN(C(=O)c2noc3c2COc2ccccc2-3)CC1`, 1.68%.
Under `Cc1cc(C)nc(NS(=O)(=O)c2ccc(NC(=O)c3ccco3)cc2)n1` stands -3.9%; under `CCOC(=O)c1[nH]c2c(c1Cc1ccccc1OC)C(=O)CC(c1cccs1)C2` (stereo not shown), 3.5%; under `COc1cccc(C2OCCN(Cc3ccccc3)C(=O)c3[nH]c4ccccc4c32)c1` (stereo not shown), 3.68%.
For `Cc1cccc(NC(=O)C2CCCN(c3ncnc4c3nc3n4CCCCC3)C2)n1` (stereo not shown), the “% Inhibition @ 10 uM” value is given as -5.3%.
In the case of `CC(=O)C(C)n1c(N2CCOCC2)nc2c1c(=O)n(C)c(=O)n2C` (stereo not shown) it was -3.27%; in that of `NS(=O)(=O)c1ccc(CCNC(=O)c2cc(-c3ccccc3)nc3ccccc23)cc1`, -5.28%; in that of `Clc1cccc(N2CCN(Cc3ccoc3)CC2)c1`, -1.86%.
As to `Cc1ccc(NC(=O)c2sc3nc(-c4ccncc4)ccc3c2N)cc1F`, the “% Inhibition @ 10 uM” value is on record as -10.7%.
With `COc1cccc(C(=O)N2CCN(Cc3ccc4c(c3)OCO4)CC2)c1`, the “% Inhibition @ 10 uM” value worked out at 7.1%.
For `C=CCNC(=O)C(Cc1ccc([N+](=O)[O-])cc1)N1C(=O)c2ccccc2C1=O` (stereo not shown), the “% Inhibition @ 10 uM” value is on record as 0.937%.
`Nc1cc(-c2ccccc2)nn1S(=O)(=O)c1ccccc1`: the “% Inhibition @ 10 uM” value was 2.74%.
`Cn1c(SCc2ccc(F)cc2)nc2ccc(C(=O)NCCCN3CCOCC3)cc21`: the “% Inhibition @ 10 uM” value is listed as -8.99%.
With `CCCCC(NC(=O)OCc1ccccc1)C(=O)NC(CCc1ccccc1)C(=O)CO` (stereo not shown), the “% Inhibition @ 10 uM” value is reported as -2.35%.
In the case of `CC1CCc2sc(NC(=O)CCC(=O)O)c(C#N)c2C1` (stereo not shown) it was 8.26%; in that of `CCC1(C)Cc2ccccc2-c2nc3n(c(=O)c21)CC(C(=O)O)S3` (stereo not shown), 3.66%.
With `O=c1[nH]c2c(oc3ccccc32)c(=O)n1Cc1ccc(Cl)cc1`, the “% Inhibition @ 10 uM” value is recorded as -8.41%.
Under `CN(CCc1ccccn1)Cc1ccc(N(C)C)cc1` stands -9.96%.
Regarding `Clc1ccc(-n2ncnc2-c2cccs2)cc1`, the “% Inhibition @ 10 uM” value is recorded as -2.48%.
In the case of `COc1cc2ccccc2cc1C(=O)Nc1cccc(C)c1C` it was 2.6%; in that of `Cc1nc2ccccn2c1-c1csc(Nc2ccc(O)cc2)n1`, -0.0953%.
In the case of `CC(C)Nc1nc(OCC(F)(F)F)nc(N(c2ccccc2)c2ccccc2)n1` it was -0.744%; in that of `Cc1ccc(/N=C2/SC(C(=O)O)CC(=O)N2C)cc1C` (stereo not shown), -0.884%.
In the case of `CC(=O)Nc1cccc2nsnc12`, the “% Inhibition @ 10 uM” value was 0.989%.
As for `CC(=O)c1nc2ccccc2[nH]1`, the “% Inhibition @ 10 uM” value came out at 7.61%.
As for `Cc1oc(C(C)(C)C)cc1C(=O)N1CCCC1C(=O)O` (stereo not shown), the “% Inhibition @ 10 uM” value is given as -2.98%.
Take `Cc1cc(C)c2nc(-c3ccc(N)cc3)oc2c1`: the “% Inhibition @ 10 uM” value is listed as 1.62%.
With `CCN(CC)S(=O)(=O)c1ccc(NC(=O)c2ccc(Cl)cc2)cc1`, the “% Inhibition @ 10 uM” value was -0.553%.
On to `CC1=C(c2ccc(Cl)cc2)S(=O)(=O)N=C1NC(C)CCc1ccccc1` (stereo not shown), for which the “% Inhibition @ 10 uM” value is recorded as -1.08%.
In the case of `CCN(CCO)Cc1csc2cc(C)ccc12` it was -6.39%.
For the molecule `CCCC(=O)NCCc1nc2ccccc2n1CC(=O)c1ccccc1`, the “% Inhibition @ 10 uM” value stood at 3.49%.
Take `Cc1cc(NC(=O)c2ccc3c(c2)C(=O)N(C2CCCCC2)C3=O)no1`: the “% Inhibition @ 10 uM” value is on record as 1.31%.
For `O=C(CCc1nc(-c2ccccc2F)no1)NCCc1ccccc1Cl`, the “% Inhibition @ 10 uM” value is given as 4.05%.
As for `O=C(O)c1cccc(N2C(=O)c3ccc(C(=O)O)cc3C2=O)c1`, the “% Inhibition @ 10 uM” value turned out to be 1.27%.
With `CCc1ccccc1NC(=S)NC(=O)c1ccccc1`, the “% Inhibition @ 10 uM” value was 3.82%.
In the case of `Cc1ccccc1-c1nnc2n1C1(CCCC1)Cc1ccccc1-2`, the “% Inhibition @ 10 uM” value is on record as 0.0538%.
For the molecule `CN(C)c1ccc(/C=C/C(=O)c2cccs2)cc1`, the “% Inhibition @ 10 uM” value turned out to be 4.57%.
Turning to `O=S(=O)(c1cccc(F)c1)N1CCN(Cc2ccccc2)CC1`, the “% Inhibition @ 10 uM” value is reported as -7.83%.
`O=C(c1ccc(F)cc1F)N1CCN(c2cc(N3CCCCC3)c(F)cc2[N+](=O)[O-])CC1`: the “% Inhibition @ 10 uM” value is reported as 1%.
Turning to `Cn1c(=O)c2c(-c3ccc(Cl)cc3)n(C(C)(C)C)cc2n(C)c1=O`, the “% Inhibition @ 10 uM” value is -6.85%.
Take `CCOC(=O)c1sc2nc(C)cc(/C=C\c3ccccc3)c2c1N`: the “% Inhibition @ 10 uM” value is given as -1.68%.
With `COc1ccc(C(=O)N/C(=C\c2ccc3c(c2)OCO3)C(N)=O)cc1`, the “% Inhibition @ 10 uM” value turned out to be 2.99%.
As for `Cc1ccc(NC(=O)c2ccc(C)o2)cc1`, the “% Inhibition @ 10 uM” value is recorded as -17.2%.
Under `CCOc1ccc2nc(N3CCC(C(=O)N4CCC5(CC4)OCCO5)CC3)sc2c1` stands 1.8%.
Turning to `CSc1ccc(CCNC(=O)Cn2ncc3ccsc3c2=O)cc1`, the “% Inhibition @ 10 uM” value is -8.42%.
Under `Cc1ccc(Cn2c(C)c(CNCCc3ccccc3)c(C(=O)O)c2C)cc1` stands -7.36%; under `COc1cc(OC)cc(C(=O)Nc2cccc3ccccc23)c1`, -2.32%.
Turning to `COc1ccc(-c2nnc(C3CCN(S(=O)(=O)c4ccc(OC)cc4OC)CC3)o2)cc1`, the “% Inhibition @ 10 uM” value is on record as -1.08%.
As to `COc1ccc(S(=O)(=O)Nc2ccc(CC#N)cc2)c(Cl)c1Cl`, the “% Inhibition @ 10 uM” value was -3.03%.
Regarding `O=c1c(Oc2ccccc2)c(C(F)(F)F)oc2c3c(ccc12)OCO3`, the “% Inhibition @ 10 uM” value is recorded as -11.2%.
Take `O=c1c(Cl)c(NCC2CCCO2)cnn1C12CC3CC(CC(C3)C1)C2` (stereo not shown): the “% Inhibition @ 10 uM” value is 0.738%.
`COc1ccc(OC)c(CCNC(=O)CCc2nnc3ccc(N4CCN(C)CC4)nn23)c1`: the “% Inhibition @ 10 uM” value was -2.26%.
`CN(CC(=O)NC1CCCc2ccccc21)S(=O)(=O)c1cccc2cccnc12` (stereo not shown): the “% Inhibition @ 10 uM” value is -2.42%.
Turning to `CC1CCC(Nc2cnn(C34CC5CC(CC(C(=O)O)(C5)C3)C4)c(=O)c2Cl)CC1` (stereo not shown), the “% Inhibition @ 10 uM” value is on record as 1.3%.
As for `O=C(Nc1ccc(OCc2ccccc2)cc1)C12CC3CC(CC(C3)C1)C2`, the “% Inhibition @ 10 uM” value was 3.34%.
In the case of `COc1ccc(Nc2ccc3c4c(c5cc(C)ccc5nc24)-c2ccccc2C3=O)cc1`, the “% Inhibition @ 10 uM” value was 15.3%.
With `Cc1ncc(CO)c2c1Oc1nc(-c3ccccc3F)nc(SCC(=O)NCC(=O)O)c1C2`, the “% Inhibition @ 10 uM” value was -5.33%.
Consider `CC1C(C(=O)O)CC(C(=O)O)C1(C)C` (stereo not shown), for which the “% Inhibition @ 10 uM” value is given as -1.97%.
With `Cn1nc(C(=O)NCc2ccccc2)cc1C(=O)O`, the “% Inhibition @ 10 uM” value stood at 9.92%.
For `Cn1cc(/C=C2/SC(=O)N(CC(=O)N3CCCC3)C2=O)c2ccccc21`, the “% Inhibition @ 10 uM” value is 1.05%.
`CCn1ccc(C(=O)Nc2ccc(C)cc2)n1`: the “% Inhibition @ 10 uM” value was found to be 9.65%.
For `COc1ccc(CCNCc2c(C(=O)O)c(C)n(Cc3ccc(F)cc3Cl)c2C)c(OC)c1`, the “% Inhibition @ 10 uM” value was -0.23%.
For `Cc1ccc(-c2cc(C(=O)NCCN3CCOCC3)c3ccccc3n2)cc1`, the “% Inhibition @ 10 uM” value is on record as -5.46%.
With `Nc1nonc1-c1noc(-c2cc3c(ccc4ccccc43)oc2=O)n1`, the “% Inhibition @ 10 uM” value came to 1.13%.
Take `O=C(NCCCN1CCCC1=O)C(=O)NCC(c1cccnc1)N1CCOCC1` (stereo not shown): the “% Inhibition @ 10 uM” value was -3.51%.
`Cc1nn(C)cc1C(=O)Nc1ccncc1`: the “% Inhibition @ 10 uM” value is recorded as -1.24%.
`O=C(O)CNS(=O)(=O)c1cccc2nsnc12`: the “% Inhibition @ 10 uM” value is listed as -3.16%.
Consider `CCOC(=O)c1c(C)nc(-c2ccccc2)nc1N`, for which the “% Inhibition @ 10 uM” value is recorded as -1.91%.
Under `CC1=C(C(=O)Nc2cccc(C)n2)C(c2cccc(Oc3ccccc3)c2)C2=C(O)CCCC2=N1` (stereo not shown) stands -2.53%; under `C=CCOc1ccc(CNCc2ccccc2)cc1OC`, 0.13%.
With `COc1cccc(C2N3CCCN23)c1OC` (stereo not shown), the “% Inhibition @ 10 uM” value was -6.67%.
`Cc1nc2nc(-c3cccnc3)nn2c(O)c1C`: the “% Inhibition @ 10 uM” value was 4.18%.
For the molecule `CC(CNC(=O)c1ccccc1Cl)NC(=O)c1ccccc1Cl` (stereo not shown), the “% Inhibition @ 10 uM” value is listed as 0.993%.
On to `COc1cccc(C2C(C#N)=C(N)SC(N)=C2C#N)c1`, for which the “% Inhibition @ 10 uM” value amounted to 39%.
In the case of `Cc1cccc(C)c1NC(=O)Nc1ccc(Cl)cc1`, the “% Inhibition @ 10 uM” value is reported as 1.29%.
As to `CCCN1Cc2cccc(C(=O)NCc3ccc(C)cc3)c2C1=O`, the “% Inhibition @ 10 uM” value is reported as -0.499%.
As for `O=[N+]([O-])c1ccc2[nH]c3c(c2c1)CCCC3O` (stereo not shown), the “% Inhibition @ 10 uM” value is listed as -2.72%.
In the case of `COc1ccccc1OC(C)C(=O)N(Cc1ccc(Cl)cc1)Cc1ccco1` (stereo not shown) it was -0.45%; in that of `COc1ccc(-c2nnc(SCC(=O)NC3CCCCC3)o2)cc1`, -5.63%.
For `O=C1CC(c2c(F)cccc2Cl)C2=C(CC(c3ccc(F)cc3)CC2=O)N1` (stereo not shown), the “% Inhibition @ 10 uM” value was 2.54%.
As for `CN(C)c1ccc(/C=C/CN2CCCCC2)cc1`, the “% Inhibition @ 10 uM” value is on record as -0.292%.
On to `COc1ccc(NC(=O)C(CCSC)N2C(=O)c3ccccc3C2=O)cc1` (stereo not shown), for which the “% Inhibition @ 10 uM” value was 1.71%.
For `CCS(=O)(=O)c1nc(S(=O)(=O)c2ccc(Cl)cc2)c(NCCc2ccccc2)s1`, the “% Inhibition @ 10 uM” value is on record as -0.522%.
`CN(CC(=O)NC1CCCCC1)c1nnc(N2CCCC2=O)s1`: the “% Inhibition @ 10 uM” value was -1.01%.
Turning to `COc1ccc(C2CC(C(F)(F)F)n3nc(C(=O)NC(C)(C)C)c(Cl)c3N2)cc1OC` (stereo not shown), the “% Inhibition @ 10 uM” value worked out at 6.42%.
With `O=C(CN1CCCC1)Nc1c2c(nc3c1CCC3)CCC2`, the “% Inhibition @ 10 uM” value is reported as -4.67%.
In the case of `CC(C)c1ccccc1NC(=O)CN1C(=O)c2ccccc2C1=O` it was -8.06%.
On to `COc1ccc(C2=CC(c3ccccc3)c3ccccc3O2)cc1OC` (stereo not shown), for which the “% Inhibition @ 10 uM” value is listed as -13.2%.
As to `COCCO/C(O)=C1\C(C)=NC2=C(C(=O)CC(c3ccccc3Cl)C2)C1c1ccc(C)o1` (stereo not shown), the “% Inhibition @ 10 uM” value was -1.17%.
`N#CCNC(=O)[C@H](Cc1c(F)cccc1F)NC(=O)c1ccc(-c2ccccc2Cl)c(Cl)c1`: the “% Inhibition @ 10 uM” value was -3.48%.
Under `CC(=O)[C@H](CCc1ccccc1)NC(=O)[C@H](CC(C)C)NC(=O)OCc1ccccc1` stands -4.82%; under `CCCc1nnc2sc(NC(=O)COc3ccc(C)c(C)c3)nn12`, 1.39%.
